# Assay results published in PubChem BioAssay AID1347120 (National Center for Advancing Translational Sciences (NCATS), 2019).
# Hit rate of the full screen: of about 390,000 compounds, about 930 (0.24%) were called active. Inconclusive results, whose numbers are uncertain, are shown with a selection of clear calls. Calls follow the shape of the dose curve; as a rule, active = well fitted activation curve with a large enough effect; inconclusive = small, poorly fitted or top-dose-only effect; inactive = no such curve, though single readings can be large or run the other way. A potency beside an inconclusive call is a rough fit, not a confirmed value.
# Experiment: qHTS for Suppressors of FUS Proteinopathy: Primary screen using FUS-linked yeast assay; also: nearly all actives have a fitted effect of over 55% in size;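 as to growth rescue (activation): plate controls were DMSO vehicle for no effect and reference control for full effect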
# Conditions: S. cerevisiae FUS-expressing, OD600, 24 h; Potency: growth rescue; growth rescue (activation): at 76.6 µM (top of the series)
# How it was run: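 Yeast expressing FUS under galactose induction, OD 0.005 in 2% galactose medium; compounds in a dilution series, 24 h at 30C. Growth rescue by absorbance at 600 nm; CP55940 positive control, DMSO negative.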
# Potency is read from the fitted curve at half-maximal effect; tags tell the direction and shape of the fitted curve.
SMILES,Potency,growth rescue (activation)
COc1ccc(-c2ccc(C(=O)NCc3ccc(N(C)C)cc3)c3occc23)c(C)c1,inactive,
CC(CO)Nc1nc(SCc2ccccc2)nc2sc3c(c12)CCC3 (stereo not given),"inconclusive: 22.4 µM [activator, partial curve]",
CCN(C(=O)COC(=O)C1CCN(S(=O)(=O)c2ccc3c(c2)OCCO3)CC1)C1CCCCC1,"inconclusive: 15.8 µM [activator, partial curve, poor fit]",
Cc1ccc(-c2nnc(N3CCOCC3)c3ccccc23)cc1S(N)(=O)=O,"inconclusive: 22.4 µM [activator, partial curve]",
COc1ccc(-n2c(Cc3cccn3C)nnc2SCC(=O)NCc2ccc(F)cc2)cc1,"inconclusive: 22.4 µM [activator, single point]",
O=C(C1COc2ccccc2O1)N1CCN(c2nc3c(F)cccc3s2)CC1 (stereo not given),inactive,
COc1ccc(Cl)cc1NC(=O)CN(C)C(=O)CCC(=O)c1cc(C)sc1C,"inconclusive: 50.1 µM [activator, single point]",
CCCNC(=O)CN1C(=O)COc2ccc(S(=O)(=O)N3CC(C)CC(C)C3)cc21 (stereo not given),inactive,
NC(=O)C1CCN(C(=O)CCc2nc3sc4c(c3c(=O)[nH]2)CCCC4)CC1,"inconclusive: 28.2 µM [activator, single point]",
CS(=O)(=O)N1CCC(C(=O)NCc2ccccc2)CC1,,inconclusive: -89.9% [activator]
O=C(NC1CCCCN(Cc2ccc(Cl)cc2)C1=O)C1C2CC3CC(C2)CC1C3 (stereo not given),inactive,
O=C(Nc1nc(-c2ccc3c(c2)OCCO3)cs1)c1ccc(Br)o1,"inconclusive: 35.5 µM [activator, single point]",
COc1ccc(C)c2sc(N(Cc3cccnc3)C(C)=O)nc12,inactive,
CCOc1ccccc1N1CCN(C(=O)c2cc3c(s2)CCC3)CC1,inactive,
COc1ccc(C(NC(=O)/C=C\c2ccco2)c2ccc(OC)c(OC)c2)cc1 (stereo not given),inactive,
COc1ccccc1CC(=O)Nc1ccc(S(=O)(=O)N2CCCCC2)cc1,"inconclusive: 39.8 µM [activator, single point]",
COc1ccc(S(=O)(=O)N(C)C)cc1NC(=O)Cc1c[nH]c2ccccc12,"inconclusive: 35.5 µM [activator, single point]",
CC(C)Oc1ccc(C(=O)Nc2ccc3c(c2)CCCN3C(=O)c2cccs2)cc1,"inconclusive: 50.1 µM [activator, single point]",
COC(=O)[C@]12C[C@H](CC(=O)NCc3cccs3)C(=O)N(Cc3ccc(Cl)cc3Cl)C1=C[C@H](C(C)C)O[C@@H]2C1CC1,"inconclusive: 3.98 µM [activator, full curve]",
Cc1c(-c2ccccc2)cn2c1-c1ccc(C)n1CC2,"inconclusive: 22.4 µM [activator, partial curve, poor fit]",

SMILES,Potency,growth rescue (activation)
c1ccc(-c2cc3nc(NCc4ccc5c(c4)OCO5)ccn3n2)cc1,"inconclusive: 28.2 µM [activator, single point]",
C=CCNc1nc(C(=O)OCC(=O)c2ccc(C)c([N+](=O)[O-])c2)cs1,"inconclusive: 7.94 µM [activator, partial curve]",
COc1ccc(C2CC(c3cccc(C(F)(F)F)c3)=NN2c2ccc(S(N)(=O)=O)cc2)cc1 (stereo not given),"inconclusive: 31.6 µM [activator, single point]",
O=C(NCc1ccc2c(c1)OCO2)c1ccc2c(c1)OCCO2,inactive,
O=C(Nc1c(C(=O)N2CCN(c3ccc(F)cc3)CC2)oc2ccccc12)c1c(F)cccc1F,"inconclusive: 50.1 µM [activator, single point]",
C=CC[C@H](CC(=O)N(CCO)Cc1ccccc1)C(=O)N[C@@H](COC(=O)[C@@H](CC=C)Cc1ccc(F)cc1)Cc1ccccc1,"inconclusive: 22.4 µM [activator, partial curve]",
Cc1c(C(=O)N(Cc2ccc(N(C)C)cc2)C2CCS(=O)(=O)C2)oc2ccccc12 (stereo not given),"inconclusive: 11.2 µM [activator, partial curve]",
C=C(C)COc1ccc(-c2[nH]ncc2-c2ccccc2OC)c(O)c1,"inconclusive: 35.5 µM [activator, single point]",
COc1ccccc1N1C(=O)CSC1=NC(=O)c1ccccc1,"inconclusive: 50.1 µM [activator, single point]",
OC(c1ccc(Cl)cc1)c1ncc(-c2ccc(Oc3ccccc3)cc2)[nH]1 (stereo not given),"inconclusive: 31.6 µM [activator, single point]",
COCCOc1ccc(C(F)(F)F)cc1NC(=O)CN1C(=O)NC2(CCCc3ccccc32)C1=O (stereo not given),"inconclusive: 50.1 µM [activator, single point]",
COc1ccc(-n2c(SCc3nc4ccccc4[nH]3)nc3ccccc3c2=O)cc1,active: 35.5 µM,
CCc1ccc(N(C(=O)CCC(=O)Nc2cc(C)on2)C(C(=O)NC(C)(C)C)c2ccc(OC)cc2)cc1 (stereo not given),"inconclusive: 7.94 µM [activator, full curve, poor fit]",
O=C(CSc1nc2nn(-c3ccccc3)c(=O)c-2c2n1CCCCC2)c1ccc(OC(F)F)cc1,"inconclusive: 31.6 µM [activator, partial curve, poor fit]",
CCOc1ccc(OCC)c(NC(=O)CSc2nc3cccnc3n2C)c1,"inconclusive: 11.2 µM [activator, partial curve]",
COc1ccc(Cn2nnc3c(=O)[nH]c(C4CCCN(C(=O)c5ccc(C)cc5)C4)nc32)cc1 (stereo not given),inactive,
Oc1c(N=Nc2ccc(F)cc2)ccc2ccccc12,inactive,
COc1cccc(-c2nn(C)c3sc(C(=O)NCc4ccccn4)cc23)c1,,inconclusive: 54.7% [activator]
Cc1c(CCC(=O)NCCCn2ccnc2)c(=O)oc2c(C)c3oc4c(c3cc12)CCCC4,"inconclusive: 50.1 µM [activator, single point]",
CC1Cc2ccccc2N1C(=O)C1CCCN(S(=O)(=O)c2cccc3cccnc23)C1 (stereo not given),"inconclusive: 12.6 µM [activator, partial curve, poor fit]",
